Measurements reported in PubChem BioAssay (NCATS).
Inconclusive means that the source gave no clear call. Where the call is inconclusive, the potency comes from a doubtful curve fit.

Target: Cellular tumor antigen p53 (Homo sapiens) (UniProt P04637)
Assay: Primary qHTS for small molecule compounds that upregulate eGFP-tagged delta133p53alpha (in N-terminal) cells. (AID 2060322);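 note: cells pre-induced with doxycycline then dosed without doxycycline; nearly all actives have a fitted effect of over 75% in size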
Details: NCI-H358 eGFP-delta133p53alpha fluorescence, 24 h; activation: stronger effect = higher value; active = well fitted activation curve with a large enough effect; inconclusive = small, poorly fitted or top-dose-only effect; inactive = no such curve, though single readings can be large or run the other way
Method in brief: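 NCI-H358 cells pre-induced 24 h with 10 ng/ml doxycycline for eGFP-delta133p53alpha, plated dox-free and exposed 24 h at 37C to titrated compounds. Fixed, Hoechst-stained; gated GFP peak intensity by laser scanning cytometry, normalized to DMSO (0%) and 57.5 uM 5-azacytidine (100%).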
Potency is the fitted concentration of half-maximal effect; tags give direction and shape of the fitted curve.

Sequence of UniProt P04637 (P04637 whole entry, looked up): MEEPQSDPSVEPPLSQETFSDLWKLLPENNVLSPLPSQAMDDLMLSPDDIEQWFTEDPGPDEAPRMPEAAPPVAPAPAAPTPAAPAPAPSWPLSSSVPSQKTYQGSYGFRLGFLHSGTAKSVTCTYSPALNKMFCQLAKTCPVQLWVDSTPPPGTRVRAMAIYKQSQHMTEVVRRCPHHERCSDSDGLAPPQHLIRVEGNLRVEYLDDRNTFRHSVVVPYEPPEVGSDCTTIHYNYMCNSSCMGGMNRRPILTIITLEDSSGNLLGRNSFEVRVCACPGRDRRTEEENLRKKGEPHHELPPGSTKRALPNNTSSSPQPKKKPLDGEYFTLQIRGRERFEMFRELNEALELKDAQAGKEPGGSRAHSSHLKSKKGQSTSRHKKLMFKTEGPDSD

Q: For `C[C@H]1O[C@H](O[C@H]2[C@H](O)[C@@H](O)[C@@H](O[C@H]3[C@H](O)[C@@H](O)[C@H](O)O[C@@H]3CO)O[C@@H]2CO)[C@H](O)[C@@H](O)[C@@H]1N[C@H]1C=C(CO)[C@@H](O)[C@H](O)[C@H]1O`, which Potency is on record?
A: inconclusive: 1.74 µM [activator, partial curve]

Q: How did the Potency turn out when `COc1ccccc1O` was run?
A: inconclusive: 10.1 µM [activator, single point]

Q: How did the Potency turn out when `CC(C)[C@@](C)(O)[C@@H]1CN(c2nc(-c3[nH]nc4ncccc34)c(F)cc2Cl)CCN1` was run?
A: inconclusive: 37.9 µM [activator, single point]

Q: For `C=C1C(=O)O[C@@H]2/C=C(\CO)CC/C=C(/C=O)C[C@@H](O)[C@@H]12`, which Potency is on record?
A: inconclusive: 37.9 µM [activator, single point]

Q: For `C=C(C(=O)O)[C@@H]1CC[C@@]2(C)CC[C@H](O)[C@@]2(C(C)=O)C1`, which Potency is on record?
A: inconclusive: 37.9 µM [activator, single point]
